Measurements: the BET-seq Pho4 binding data (Le et al. 2018)
The list shows a part of the results. The energies were worked out here from pooled read counts, against the library average; single values are noisy.

Target: T1, Pho4 (S. cerevisiae) (UniProt P07270)
T1 sequence: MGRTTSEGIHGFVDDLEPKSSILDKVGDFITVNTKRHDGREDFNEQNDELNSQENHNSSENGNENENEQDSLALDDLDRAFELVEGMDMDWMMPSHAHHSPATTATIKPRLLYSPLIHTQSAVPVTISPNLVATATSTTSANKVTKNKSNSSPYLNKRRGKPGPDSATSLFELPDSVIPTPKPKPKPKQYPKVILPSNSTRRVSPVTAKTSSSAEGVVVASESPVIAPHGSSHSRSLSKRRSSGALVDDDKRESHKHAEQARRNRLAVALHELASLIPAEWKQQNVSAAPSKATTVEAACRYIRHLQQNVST
Test: relative binding free energy (BET-seq); higher = weaker binding
Conditions: reference: library average

Sequence	relative binding free energy [kcal/mol]
TCGTTCACGTGAGCGG	0.4
GTTTTCACGTGTGCAA	0.18
CGTCGCACGTGGGGTA	-0.22
AGGTACACGTGTGGCG	0.15
TGTGCCACGTGGGTCG	-0.23
GACTTCACGTGAGGTG	0.53
TAAAACACGTGTTTTG	0.05
ACGTTCACGTGGCGTG	0.04
TTCTTCACGTGTGCGG	0.3
GGTGCCACGTGTTGGG	0.01
GTTCACACGTGGATGG	0.32
TTGTACACGTGTTATT	-0.01
TTCATCACGTGAGTTA	0.34
GGGAACACGTGGTGAT	0.04
TATGTCACGTGGGAGG	-0.02
TTGAACACGTGTGAGG	0.11
GCGCGCACGTGTGGGG	-0.13
CGTTTCACGTGAATGT	0.39
TGAGTCACGTGTGCTT	0.24
TGGTACACGTGGTTAC	-0.04
GGGTTCACGTGCGGAT	0.33
ATAATCACGTGGTGCA	0.08
GGTCACACGTGGGTTC	0.07

Sequence	relative binding free energy [kcal/mol]
TAGATCACGTGAGGTG	0.38
TCGGGCACGTGGGGCA	-0.3
GAAGTCACGTGCGTTT	0.18
TTGCGCACGTGTGATT	0.02
CGCGGCACGTGGGGTA	-0.25
ATTAACACGTGGAGGG	0.04
TTTCTCACGTGGCTTG	0.21
GGACACACGTGTGTGG	-0.05
GTTAGCACGTGTAGTT	0.11
AAGTGCACGTGCATGT	-0.1
GGATGCACGTGAATGT	0.26
GCGTGCACGTGTGGGC	0.11
AGTCGCACGTGTTGGT	-0.04
GGATACACGTGTTATT	0.12
TGTTTCACGTGTCGTA	0.29
TGCTTCACGTGGCGGT	0.13
GTGTGCACGTGTGTAT	0.06
ACGTACACGTGGCGGG	-0.04
TAATGCACGTGGACGG	0.02
CGGAACACGTGATTGG	0.25
GGTGTCACGTGCTCGT	0.03
TTCAACACGTGATTTT	0.21
ATTAGCACGTGTGTCT	0.02

Sequence	relative binding free energy [kcal/mol]
GGTTACACGTGATGAG	0.27
GTGAGCACGTGAGGGA	0.17
TCGTTCACGTGCGTGA	0.23
GGGCTCACGTGGGCGG	0.22
TAGGTCACGTGGGTTG	-0.02
GAGTTCACGTGCATGA	0.45
CCGGTCACGTGGGGTA	0.08
CTGTTCACGTGTCGTT	0.19
AGTACCACGTGGGGGT	-0.37
AATTACACGTGCTTTG	0.02
GTGAGCACGTGGAGTC	0.05
TAAGGCACGTGGCGTA	-0.2
TGTTACACGTGATGAT	0.22
TCTTACACGTGTATAT	0.14
GGGTTCACGTGCGTTA	0.27
ACATTCACGTGTTTTA	0.3
AGTAGCACGTGTTACG	-0.11
AGAGTCACGTGATGCT	0.18
CGTAGCACGTGTTCGG	-0.02
ATCGGCACGTGAGCGT	0
TTTTTCACGTGATAGA	0.38
CGTGGCACGTGAAGTA	0.2
TCTGGCACGTGAGATG	0.27

Sequence	relative binding free energy [kcal/mol]
GAATGCACGTGGGCGG	-0.02
AGTAGCACGTGGGTAC	-0.21
GAAGACACGTGTGGGC	0.03
ATGATCACGTGAGGGT	0.39
AATCTCACGTGTGAGG	0.32
TTATGCACGTGAATGT	0.13
TTGAGCACGTGTTTCA	-0.07
CATAACACGTGGGTGG	-0.16
TTATACACGTGCGGGG	0.05
GTTGGCACGTGCGGTC	-0.2
GGCGACACGTGTGCGT	0.18
TAGCGCACGTGGTGCG	-0.08
GGGTACACGTGTTTGT	0.16
TGAGACACGTGGGGCG	-0.14
GTTTACACGTGAGATT	0.27
TAAGGCACGTGGTCAG	-0.12
TTAACCACGTGAGTTG	0.21
ATTATCACGTGATTAG	0.15
CTGATCACGTGTTATT	0.1
TTTAACACGTGATGTC	0.27
TAGAGCACGTGGCTGT	-0.29
TGTAACACGTGGTGAA	-0.12
TGAGTCACGTGGAAAG	0.13

Sequence	relative binding free energy [kcal/mol]
GCTTGCACGTGATCGG	0.08
AATAGCACGTGGGGTT	-0.13
ATGCTCACGTGTGGCT	0.22
TTAACCACGTGGTTAT	-0.03
GGTGACACGTGGATGT	0.08
CGGGCCACGTGGTGGT	-0.15
GGGTTCACGTGTTGGA	0.34
GTCTTCACGTGTAAGT	0.32
GGACTCACGTGTGGTA	0.25
GATGGCACGTGTTGGC	0
ATGTGCACGTGTATAA	-0.04
AGTACCACGTGGGGGG	-0.28
TGGGACACGTGGGCCT	-0.16
GGCGACACGTGGTGAT	0.11
TTTATCACGTGCAGGA	0.06
CCCTGCACGTGGGGGG	-0.32
GTTAACACGTGTGAAG	0.05
TCGATCACGTGGATGG	0.05
TGGAGCACGTGAAGAT	0.28
GGAAGCACGTGGTGTT	-0.13
GCGGGCACGTGGGGGA	-0.16
TCAGTCACGTGACGTG	0.21
AGGCTCACGTGTAATG	0.25
